Screen size: about 310,000 compounds; about 2,200 (0.71%) showed an effect of 50% or more. The effect is printed as a negative number. Some of the results follow.
These molecules were tested against human ether-à-go-go-related gene (hERG) potassium channel (human, UniProt Q12809) (assay: primary screen, population patch clamp on CHO cells stably expressing hERG).
human ether-à-go-go-related gene (hERG) potassium channel, sequence (Q12809 whole entry, looked up): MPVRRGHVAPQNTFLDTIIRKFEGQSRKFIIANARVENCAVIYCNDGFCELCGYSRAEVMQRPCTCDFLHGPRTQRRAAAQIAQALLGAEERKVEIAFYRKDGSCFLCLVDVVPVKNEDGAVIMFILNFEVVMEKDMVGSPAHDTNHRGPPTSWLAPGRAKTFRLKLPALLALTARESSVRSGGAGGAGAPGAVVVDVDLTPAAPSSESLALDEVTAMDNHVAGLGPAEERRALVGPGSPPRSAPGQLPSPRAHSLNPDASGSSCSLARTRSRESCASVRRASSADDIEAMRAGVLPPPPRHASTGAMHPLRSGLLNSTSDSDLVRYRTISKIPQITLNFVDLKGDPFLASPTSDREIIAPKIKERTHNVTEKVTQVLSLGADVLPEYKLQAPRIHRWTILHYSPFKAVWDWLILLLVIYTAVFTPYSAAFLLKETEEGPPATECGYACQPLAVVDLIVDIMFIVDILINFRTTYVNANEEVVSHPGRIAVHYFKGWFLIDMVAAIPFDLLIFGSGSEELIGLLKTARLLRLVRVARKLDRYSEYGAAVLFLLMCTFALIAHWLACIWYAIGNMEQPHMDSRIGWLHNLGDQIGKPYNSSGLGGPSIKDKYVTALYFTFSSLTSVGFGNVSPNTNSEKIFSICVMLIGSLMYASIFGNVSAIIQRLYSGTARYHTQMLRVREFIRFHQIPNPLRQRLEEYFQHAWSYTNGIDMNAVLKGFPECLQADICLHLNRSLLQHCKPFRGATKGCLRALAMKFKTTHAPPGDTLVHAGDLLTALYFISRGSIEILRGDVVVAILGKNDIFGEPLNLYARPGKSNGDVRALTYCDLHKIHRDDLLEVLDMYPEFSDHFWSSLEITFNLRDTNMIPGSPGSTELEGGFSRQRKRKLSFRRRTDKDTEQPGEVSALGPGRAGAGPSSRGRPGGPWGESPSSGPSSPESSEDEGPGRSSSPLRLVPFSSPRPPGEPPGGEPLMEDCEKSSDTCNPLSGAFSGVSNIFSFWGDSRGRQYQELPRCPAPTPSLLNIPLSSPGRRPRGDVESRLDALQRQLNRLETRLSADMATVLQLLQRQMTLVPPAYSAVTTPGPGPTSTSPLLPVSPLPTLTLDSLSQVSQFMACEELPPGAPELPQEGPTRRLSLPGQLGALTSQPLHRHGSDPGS

SMILES	hERG current change (%, negative = inhibition) at 1uM [%]
Fc1ccccc1/C=C1\CCCC2=C1NC(=S)NC2c1ccccc1F (centres unmarked)	15.3
COc1cc(CNCc2ccc(C)cc2)cc(OC)c1OC.O=C(O)C(=O)O	7.99
CC(=O)N(CN1C(=O)C2CC=CCC2C1=O)c1cccc(Cl)c1 (centres unmarked)	3.47
CC(=O)O[C@H]1CC(=O)OC(C)(C)C2CC(=O)[C@]3(C)C(CC[C@@](C)([C@@H](O[C@@H]4O[C@H](CO)[C@@H](O)[C@H](O)[C@H]4O)c4ccoc4)[C@@]34O[C@@H]4C(=O)O)[C@]21C (some centres unmarked)	13.4
COc1ccc(CC(=O)OCC(=O)Nc2c(C)n(C)n(-c3ccccc3)c2=O)cc1OC	8.25
CCOC(=O)N1CCN(Cc2nc3cc(NC(=O)C(C)C)ccc3n2C)CC1	16.1
CCc1nn(CC(=O)N2CCN(c3cc(C)ccc3C)CC2)c(=O)c2cc3occc3n12	21
CCOc1ccc2cc(C3CC(c4ccco4)=NN3S(C)(=O)=O)c(=O)[nH]c2c1 (centres unmarked)	5.74
Cc1cccc(C(=O)OCC(=O)N(C)C(c2ccccc2)c2ccccc2)c1[N+](=O)[O-]	18.1
COc1ccc(NS(=O)(=O)c2ccc(-c3cnc(C4CC4)o3)cc2)cc1OC	15.3
CCOc1ccc(S(=O)(=O)N2CCC(C(=O)Nc3cc(S(C)(=O)=O)ccc3Cl)CC2)cc1	11.4
CN(CC(=O)Nc1ccc(Cl)cc1)C(=O)COc1ncnc2ccccc12	3.55
Cc1ccc(OCC(=O)N(Cc2ccco2)c2c(N)n(Cc3ccccc3)c(=O)[nH]c2=O)cc1C	2.74
C=CCN1CCN(C(=O)c2oc3ccccc3c2C)CC1	12.5
CC(=O)Nc1ccc(S(=O)(=O)NCc2nc(-c3ccccc3Cl)no2)cc1	10.7
CC(NC(=O)c1cc2c(cc1Cl)N1CCCCCC1=NS2(=O)=O)c1ccc(S(N)(=O)=O)cc1 (centres unmarked)	21.2
N#Cc1c(NC(=O)CCCl)sc2c1CCCCC2	9.62
Clc1ccc(-c2cc(COc3ccc4ccccc4c3)no2)cc1	13.5
CCOc1ccccc1C(=O)NCc1ccco1	11.5
CCCCn1c(O)c(C(CC)=NCCN2CCCCC2)c(=O)[nH]c1=O	-25.7
Cc1ccc(C)n1NC(=O)c1ccc(Cl)cc1Cl	-0.279
COc1ccc2c(c1)sc(=N)n2C	13.1
Cc1ccc(Cl)c(OCC(=O)NN2CCN(C)CC2)c1	8.77
CC(C)CCn1c(=O)c(C(=O)NCc2ccc3c(c2)OCO3)c(O)c2ccccc21	16
CC1CCN(S(=O)(=O)c2cccc(C(=O)N(Cc3ccccc3)c3ccccn3)c2)CC1	8.14
O=C(NCc1ccccn1)c1coc(=O)c(Br)c1	13.1
CNC(=O)c1c(NC(=O)c2ccc(S(=O)(=O)N3CCCc4ccccc43)cc2)sc2c1CCN(C)C2	5.03

SMILES	hERG current change (%, negative = inhibition) at 1uM [%]
N#C/C(=C\c1ccc(F)c(Cl)c1)S(=O)(=O)c1ccccn1	3.4
N#Cc1cnn2c(C(F)(F)F)cc(-c3ccccc3)nc12	14.2
CN1CCN(c2ccc(Cl)cc2NC(=O)c2cccc(S(=O)(=O)N(C)C)c2)CC1	-10
COC(=O)C(N)Cc1ccc(O)cc1.Cl (centres unmarked)	16.4
O=C(COC(=O)c1cc(=O)[nH]c2ccccc12)NC(=O)c1ccccc1	3.88
CCc1cccc(C)c1NC(=O)C1C2CCC(O2)C1C(=O)O (centres unmarked)	18.6
COc1cc2c(cc1OC)C1(CCCC1)CNC2c1ccc([N+](=O)[O-])cc1.Cl (centres unmarked)	-11.5
COC(=O)c1ccc(C(=O)OC)c(NC(=O)COC(=O)C2CCC(C(C)(C)C)CC2)c1 (centres unmarked)	12.4
COc1cccc(/C=N/NC(=O)c2oc3nc(-c4ccccc4)cc(-c4ccco4)c3c2N)c1	2.73
O=C(O)CCC(=O)Nc1ccc(Cc2ccc(NC(=O)CCC(=O)O)c(O)c2)cc1O	7.88
CC(C)CCNc1ncnc2c1nnn2Cc1ccccc1Cl	0.36
CC(C)c1ccc(S(=O)(=O)N2CCN(CC(O)CN3CCOCC3)CC2)cc1 (centres unmarked)	0.0972
Cc1cc(NC(=O)c2noc3c2CCc2ccccc2-3)no1	3.25
CN(C)c1ccnc(C(=O)O)c1	19.4
CCOC(=O)CSc1nnc(Cn2c(=O)sc3ccccc32)n1-c1ccccc1C	3.34
Nc1nc2ccccc2n1/N=C/c1ccc(-c2ccccc2)o1	-1.77
CC(C)NC(=O)c1onc(CSc2cccc(Cl)c2)c1C(=O)O	11
CC(=O)c1cccc(NC(=O)c2ccccc2N(Cc2ccccc2)S(C)(=O)=O)c1	16.2
CCn1c(SCC(=O)Nc2cc(NC(C)=O)ccc2OC)nnc1-c1ccccn1	11.4
O=C(CN1CCN(c2ccc([N+](=O)[O-])cc2)CC1)c1ccccc1	-9.94
Cc1ccc(C2=CC(C)(c3ccc(C)cc3)Nc3nc(C(F)(F)F)nn32)cc1 (centres unmarked)	17.6
COc1ccc(/C=N/NC(=O)CC(=O)NCc2cccnc2)c(OC)c1	6.08
O=C(Nc1ccccc1C(=O)N1CCCC1)C1COc2ccccc2O1 (centres unmarked)	7.66
COc1ccc(C(=O)OCC(=O)NC(C)CCc2ccccc2)c(OC)c1 (centres unmarked)	-0.658
COc1ccc(C(C)=O)cc1COC(=O)CCCN1C(=O)c2ccccc2C1=O	7.94
CC/C(=N\NC(=O)c1ccc(CN(C)S(=O)(=O)c2ccc(C)cc2)cc1)c1ccc(OC(F)F)cc1	-3.53

Reference: article PMC4336329 (PLoS ONE, 2015)
